Biological target: light-activated unphosphorylated rhodopsin (UniProt P02699 1-348, light-activated)
UniProt P02699, sequence (P02699 whole entry): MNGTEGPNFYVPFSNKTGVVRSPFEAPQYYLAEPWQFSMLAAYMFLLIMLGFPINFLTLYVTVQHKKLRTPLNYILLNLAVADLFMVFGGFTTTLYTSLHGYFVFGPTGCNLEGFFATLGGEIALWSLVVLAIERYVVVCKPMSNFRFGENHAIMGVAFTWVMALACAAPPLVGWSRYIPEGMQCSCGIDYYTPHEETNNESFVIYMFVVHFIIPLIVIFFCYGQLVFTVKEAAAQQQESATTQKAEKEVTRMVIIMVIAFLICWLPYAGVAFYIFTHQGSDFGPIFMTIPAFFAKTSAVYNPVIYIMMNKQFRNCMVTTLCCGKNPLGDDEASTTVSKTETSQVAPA

B1: arrestin-1 R175E (natural protein)
chain: not shown
With B1 the “percent of the maximum binding achieved at 37°C” value was 4%.

Source: PMC3196764 (Progress in retinal and eye research, 2011)
